# Laboratory results published in the supplement of paper PMC3334620.
# Whole data set: some 33,000 sequences, median “E-score (-0.5 to 0.5)” near -0.053, cut for the highest 2% near 0.37. Some of the results follow.
# Target: Hap1 (UniProt P0CE41)
# Assay: PBM E-score (8-mer binding enrichment) (E-score (-0.5 to 0.5)); higher = stronger / more preferred TF binding; most listed sequences are background and not binding sites
# Details: protein concentration: 200 nM; construct: GST-DNA-binding domain
# In short: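 GST-tagged yeast TFs (full-length or DNA-binding domain) were made by PURExpress in vitro transcription/translation and applied at about 100-200 nM to universal all-10-mer Agilent arrays. The arrays were made double-stranded by primer extension, on fresh or once-stripped slides. Bound protein was detected with fluorescent anti-GST, and scans were normalised with masliner. Each ungapped eight-base word, pooled with its reverse complement, received an E-score (modified Wilcoxon-Mann-Whitney statistic) from the Universal PBM Analysis Suite.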
# Sequence of UniProt P0CE41 (P0CE41 whole entry): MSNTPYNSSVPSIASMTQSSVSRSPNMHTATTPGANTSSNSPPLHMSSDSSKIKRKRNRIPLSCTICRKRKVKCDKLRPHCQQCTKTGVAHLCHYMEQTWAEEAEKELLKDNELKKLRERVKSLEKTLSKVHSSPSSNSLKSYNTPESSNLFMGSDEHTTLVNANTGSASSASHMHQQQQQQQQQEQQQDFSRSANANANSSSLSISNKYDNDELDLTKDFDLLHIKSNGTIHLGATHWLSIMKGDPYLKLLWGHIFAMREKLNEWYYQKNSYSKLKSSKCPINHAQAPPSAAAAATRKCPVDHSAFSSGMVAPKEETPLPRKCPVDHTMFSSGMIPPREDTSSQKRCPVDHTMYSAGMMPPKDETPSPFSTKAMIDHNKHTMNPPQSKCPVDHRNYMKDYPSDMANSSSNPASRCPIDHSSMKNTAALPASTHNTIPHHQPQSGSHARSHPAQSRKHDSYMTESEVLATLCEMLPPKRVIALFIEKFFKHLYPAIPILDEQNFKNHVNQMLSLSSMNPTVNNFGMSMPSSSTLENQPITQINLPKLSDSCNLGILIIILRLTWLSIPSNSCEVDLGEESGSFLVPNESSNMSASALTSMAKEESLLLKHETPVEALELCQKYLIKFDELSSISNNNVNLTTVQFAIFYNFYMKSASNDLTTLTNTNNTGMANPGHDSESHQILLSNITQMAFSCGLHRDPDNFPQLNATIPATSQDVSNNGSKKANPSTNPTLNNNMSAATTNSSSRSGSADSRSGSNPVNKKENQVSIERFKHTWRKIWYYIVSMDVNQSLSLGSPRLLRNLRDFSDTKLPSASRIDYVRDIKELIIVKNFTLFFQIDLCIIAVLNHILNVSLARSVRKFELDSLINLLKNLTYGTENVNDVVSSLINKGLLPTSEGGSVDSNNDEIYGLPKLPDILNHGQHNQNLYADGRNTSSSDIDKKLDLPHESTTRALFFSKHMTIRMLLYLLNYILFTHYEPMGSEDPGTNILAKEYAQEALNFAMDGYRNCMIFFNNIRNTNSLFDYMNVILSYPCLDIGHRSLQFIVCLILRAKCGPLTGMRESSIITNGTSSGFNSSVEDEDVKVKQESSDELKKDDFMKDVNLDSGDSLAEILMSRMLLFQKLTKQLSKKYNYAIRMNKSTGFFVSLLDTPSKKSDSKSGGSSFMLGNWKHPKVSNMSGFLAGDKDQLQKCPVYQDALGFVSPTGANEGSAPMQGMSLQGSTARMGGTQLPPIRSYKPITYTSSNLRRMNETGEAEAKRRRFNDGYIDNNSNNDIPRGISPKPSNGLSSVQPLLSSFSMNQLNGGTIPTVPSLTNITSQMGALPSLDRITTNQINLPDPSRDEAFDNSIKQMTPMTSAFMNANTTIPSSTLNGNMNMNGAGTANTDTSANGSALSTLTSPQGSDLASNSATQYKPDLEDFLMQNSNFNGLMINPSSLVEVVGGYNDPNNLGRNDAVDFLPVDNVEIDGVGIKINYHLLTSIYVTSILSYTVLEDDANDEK
row,Sequence,PBM E-score
1,AGGAGTCA,-0.179
2,CGTTCGAG,-0.141
3,ACCACGGC,0.058
4,GCTGTGAC,-0.223
5,ACGACTAC,-0.322
6,CTATAGGA,-0.132
7,TCTGTTCA,-0.263
8,ATCCTCCA,-0.224
9,CAACAGTG,0.00153
10,ACACCCCA,-0.251
11,CGATTGAG,0.011
12,ACTATGAG,-0.0992
13,GAATTATA,0.0684
14,CTACTACA,-0.0229
15,ATAAAAGG,0.0186
16,GAAATTTA,-0.0236
17,GGAAAGAC,0.043
18,AGTCCAAG,-0.404
19,TCTATTAA,-0.153
20,GCAATACC,0.129
21,AGGACAAC,-0.109
22,GCGACCTA,-0.0619
23,CCTAAGCG,-0.0345
24,GCTGGTGA,-0.112
25,CCGTGCCA,-0.0065

row,Sequence,PBM E-score
1,CACGAAAC,-0.0981
2,GGCAAAAC,0.0215
3,CCTCCAAC,-0.0637
4,ACGATATA,-0.0495
5,CACAGAAG,-0.247
6,TCATCCGA,0.368
7,TAGCAGCA,-0.239
8,CCGACGCG,0.337
9,ACATGCTC,-0.0584
10,ATATAAGC,0.0118
11,TAATGGGA,-0.212
12,AACGCCCT,-0.167
13,ACGCTCGG,0.375
14,CGGAGGAG,0.284
15,CAACAGCG,-0.0733
16,CAAATCGC,-0.0116
17,GAGGGACC,-0.172
18,CTTAAGTC,0.231
19,CAAGGAGA,-0.0638
20,AAAACGAT,-0.0918
21,CCGAACCG,0.363
22,AGCGACAT,-0.154
23,ATTATACA,-0.0599
24,GGATGCAC,-0.0496
25,GCCGGCAC,0.327

row,Sequence,PBM E-score
1,AGTTGGTC,-0.068
2,ATTCGAAA,0.0308
3,GGGGCCAC,0.103
4,ATTACAGG,0.16
5,ATGACAGA,-0.228
6,ACATATAA,-0.079
7,GTTAGCCA,-0.0632
8,AACTACGT,-0.0565
9,CTTGCGGA,0.244
10,ATGTGTGC,-0.104
11,CATAACGA,-0.0283
12,TAGTGCAA,-0.118
13,CGCAATAA,0.242
14,ATCTAAGA,-0.182
15,ACGTAACA,-0.237
16,GGACCGAA,0.338
17,AAGGGAAC,-0.155
18,ACGGCCGT,0.373
19,CTGGTAGC,-0.23
20,CATAGTCG,-0.0973
21,CGTATTGA,-0.111
22,AAGAATGC,0.0241
23,ACCCTCCG,0.2
24,ACCGGACG,0.421
25,GTGGTAAC,0.0741

row,Sequence,PBM E-score
1,AGCGCTTG,0.00543
2,CGTCAAAA,0.0461
3,ATATGGAA,-0.0148
4,CCTCACAA,-0.0933
5,AATCTCGT,0.0299
6,TAAAAATA,-0.0678
7,ATGAAGTA,-0.175
8,AGTTCAGC,-0.188
9,CGATTGGA,-0.0771
10,GTCGTCAA,-0.144
11,GAATATAC,0.168
12,AACAACAG,-0.0686
13,CAAGGACA,-0.33
14,AATCGACG,-0.0455
15,ATATCTTG,-0.173
16,ACTATAAA,0.0867
17,GGGCACTA,-0.0489
18,ACAGAAAG,-0.246
19,AGAGTGTC,-0.0226
20,ATATGCAT,0.0135
21,AGCACATG,-0.0601
22,CAGGTCCC,-0.0239
23,GTATAGTA,0.11
24,CTCAAAGA,-0.0984
25,GGCGGTGA,-0.0339

row,Sequence,PBM E-score
1,ACCTTTAC,-0.0295
2,TAACTTAA,0.0501
3,CGCGCCCA,0.113
4,TATCAACA,-0.196
5,ACGGCTAA,-0.0732
6,GCAGTCGA,-0.088
7,AACAGTGC,-0.162
8,GAGACAAA,-0.046
9,CTTAATAA,0.187
10,GAAATAAC,0.221
11,CACGAGTG,-0.259
12,AAGTCTAG,-0.155
13,ACCATGAC,-0.0287
14,ACACAGTA,-0.288
15,ATTTGACC,-0.00252
16,GCAAGGAC,-0.115
17,GCACCTGA,-0.245
18,AAGACAAC,0.0544
19,GCGGAAAA,0.286
20,AATCTAAA,0.0392
21,CTGATATC,0.26
22,AGATGAGA,-0.0579
23,ACCCTGAT,-0.139
24,AACGATGG,-0.152
25,ACAGAACT,-0.196

row,Sequence,PBM E-score
1,ACTTTGAA,-0.108
2,GTCGAACA,-0.165
3,CAGTAGTC,-0.138
4,CACCGCTC,0.0982
5,ATCACCAC,0.0204
6,ATAAGGGC,0.203
7,ACTTAGCG,0.0778
8,AGGCAAAC,-0.239
9,GTGCACGA,-0.252
10,CAGAGAGG,-0.228
11,GGAGTGAC,0.0168
12,CCTTCTCG,-0.0912
13,ATGATATG,0.0492
14,AGAAGGGG,-0.267
15,CATCCTTA,-0.362
16,CCTGCGCG,-0.0141
17,CCGCCTCA,0.173
18,ATTGACTA,-0.199
19,CCAGGGAG,-0.436
20,CTCTTGGA,-0.237
21,GAAATCTC,0.167
22,GGCCGTCA,0.074
23,ATTTGATG,0.078
24,ACGCTCTG,-0.28
25,CCACCATA,-0.0659

row,Sequence,PBM E-score
1,GTCTCCCA,-0.159
2,ACATTCAC,-0.0901
3,ACGTTAAC,-0.0133
4,CGAAGATA,0.199
5,ATGGGTGC,-0.124
6,CTTCGTGA,-0.258
7,AGGAGTCC,-0.0161
8,AGGATCTC,-0.0515
9,AAACACTC,-0.0701
10,CTGCACAA,-0.193
11,CAACCGAC,0.136
12,AGCACACA,-0.298
13,TCTGCACA,-0.11
14,GACTGTTA,-0.287
15,CTGTTCCA,-0.331
16,AAGCAGGC,-0.172
17,ATCATCCG,0.339
18,GACGGCCC,0.0353
19,ACCCGGCT,0.28
20,TCGGCACA,0.279
21,CCGAGTTA,0.271
22,AAGGGTAA,-0.142
